Assay results: the supplement of paper PMC10322689
Values joined by “and” are separate entries in the source; they are usually repeats but may differ in a detail not shown here. Identical values can stand only once. Counter-ions that a name gives are not always drawn. ± gives the standard deviation of the averaged measurements. This is one part of the list. Single values are uncertain, as repeats are few or missing.

Test system: mouse mesenchymal chondrosarcoma cells (HEY1-NCOA2)
Assay: XTT absorbance relative to DMSO control (cell viability) (fraction of DMSO control); higher = more viable cells / less growth inhibition

Compound | XTT absorbance
O=Nc1c(-c2c(O)[nH]c3ccccc23)[nH]c2ccccc12 [indirubin-3'-monoxime] | 0.957
CN(C)CCCN1c2ccccc2Sc2ccc(Cl)cc21 [chlorpromazine hydrochloride] | 0.983
Cc1ccc2nc(NCCN)c3ncc(C)n3c2c1 | 0.875
O=c1c2ccccc2[nH]c(=S)n1CCN1CCC(=C(c2ccc(F)cc2)c2ccc(F)cc2)CC1 [Diacylglycerol kinase inhibitor II] | 0.93
CCCCOc1cc(CC2CNC(=O)N2)ccc1OC (stereo unspecified) | 0.911
CN(C)S(=O)(=O)c1ccc2c(c1)/C(=C/c1cc3c([nH]1)CCCC3)C(=O)N2 | 0.976
Nc1nc(Nc2ccc(S(N)(=O)=O)cc2)nn1C(=S)Nc1c(F)cccc1F [Cdk1/2 inhibitor III] | 0.981
COC(=O)[C@H](CC(C)C)NC(=O)c1ccc(NC[C@@H](N)CS)cc1-c1ccccc1 | 0.91
NC(=O)Nc1sc(-c2ccccc2)cc1C(N)=O [IKK-2 inhibitor VI] | 0.783
O=C(NCc1ccccc1)c1csc(Nc2ccncn2)n1 [Thiazovivin] | 0.903
Oc1nc(-c2ccc(C(F)(F)F)cc2)nc2c1CSCC2 | 0.901
CC(C)CC(=O)N[C@H](C(=O)N[C@H](C(=O)N[C@@H](CC(C)C)[C@@H](O)CC(=O)N[C@@H](C)C(=O)N[C@@H](CC(C)C)[C@@H](O)CC(=O)O)C(C)C)C(C)C [Pepstatin A] | 0.938
CO[C@H]1C[C@@H]2CC[C@@H](C)[C@@](O)(O2)C(=O)C(=O)N2CCCC[C@H]2C(=O)O[C@H]([C@H](C)C[C@@H]2CC[C@@H](OC(=O)C(C)(CO)CO)[C@H](OC)C2)CC(=O)[C@H](C)/C=C(\C)[C@@H](O)[C@@H](OC)C(=O)[C@H](C)C[C@H](C)/C=C/C=C/C=C/1C [temsirolimus] | 0.819
Cn1c(=O)c2nc[nH]c2n(C)c1=O [Theophylline] | 0.918
Cc1cn(-c2cc(NC(=O)c3ccc(C)c(Nc4nccc(-c5cccnc5)n4)c3)cc(C(F)(F)F)c2)cn1 [nilotinib] | 0.954
CCN1/C(=C/C(C)=O)Sc2ccc(OC)cc21 | 0.917
O=C(Nc1cccc(Nc2nccc(Nc3cccc(C(F)(F)F)c3)n2)c1)C1CC1 [Aurora kinase inhibitor III] | 0.986
NC(=O)c1ccc(-c2nc(-c3ccccn3)c(-c3ccc4c(c3)OCO4)[nH]2)cc1 | 0.82 and 0.835

Compound | XTT absorbance
Fc1ccc(Cl)cc1-c1nc(Nc2ccncc2)c2nccnc2n1 | 0.853
COc1nccc(-c2c(-c3ccc(F)cc3)ncn2C2CCC(O)CC2)n1 (stereo unspecified) | 0.846
C#Cc1cccc(Nc2ncnc3cc(OCCOC)c(OCCOC)cc23)c1 [erlotinib] | 0.92
CCCS(=O)(=O)Nc1ccc(F)c(C(=O)c2c[nH]c3ncc(-c4ccc(Cl)cc4)cc23)c1F [Vemurafenib] | 1.02
CC[n+]1c(/C=C/N(C)c2ccccc2)n(-c2ccccc2)c2ccc(-c3nc4ccccc4s3)cc21 [Akt Inhibitor IV] | 1.05
Cc1[nH]c(/C=C2\C(=O)Nc3ccc(S(=O)(=O)N(C)c4cccc(Cl)c4)cc32)c(C)c1C(=O)N1CCN(C)CC1 | 0.839
N#C/C(=C\c1ccc(O)c(O)c1)C(=O)NCc1ccccc1 | 0.858 ± 0.057
Cn1cnc2c(NCc3ccccc3)nc(NCCO)nc21 [Olomoucine] | 0.943 ± 0.066
CCNCCCNCCCCNCCCNCC [N1,N12-Diethylspermine (BESpm)] | 1.19
OC[C@H]1NC[C@H](O)[C@@H](O)[C@@H]1O [Deoxynojirimycin] | 0.919
NCC(=O)Nc1ccc(-n2nc(C(F)(F)F)cc2-c2ccc3c(ccc4ccccc43)c2)cc1 | 1.02
C[C@H](NC(=O)/C(C#N)=C/c1cccc(Br)n1)c1ccccc1 | 1.01
CCOc1nc(NC(=O)Cc2cc(OC)ccc2OC)cc(N)c1C#N [JNK inhibitor VIII] | 0.913
COC(=O)C1=C(C)NC(C)=C(C(=O)OC)C1c1ccccc1[N+](=O)[O-] [Nifedipine] | 0.944
Cc1cccc(-c2nn3c(c2-c2ccnc4ccc(C(N)=O)cc24)CCC3)n1 | 0.892
COc1c(C=O)c(O)cc2c1C(=O)c1ccccc1C2=O [Damnacanthal] | 0.885 ± 0.021
C[C@]1(O)C[C@@H](c2nc(-c3ccc4ccc(-c5ccccc5)nc4c3)c3c(N)nccn32)C1 | 0.892
Cc1ccc(Nc2nccc(N(C)c3ccc4c(C)n(C)nc4c3)n2)cc1S(N)(=O)=O [pazopanib] | 0.835
